# Results published in PMC12040169 (PLOS Biology, 2025).
# Some of the results follow.
# Test system: T1, C. trachomatis L2/434/Bu expressing GFP (CTL2-GFP)
# T1 construct: L2/434/Bu GFP intracellular growth in HeLa cells
# Set-up: species or system HeLa; C. trachomatis total inclusion area by high-content imaging, normalised to DMSO
# Conditions: total inclusion area; 28.5 h, 10 µM; inhibitor
# Outline: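 Host cell viability was gauged from Hoechst-stained nuclei counts, while chlamydial growth was taken from total inclusion area and inclusion number per well. Cells were fixed and imaged by high-content microscopy once bulk GFP and resorufin fluorescence had been measured.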
row,Compound,% of control remaining
1,COc1ccccc1-c1nnc(SCC(=O)N2CCN(c3ccccc3)CC2)[nH]1 [CBK270105],86.9001
2,CC(C)C1OC(NCc2ccccc2Cl)=NC1=O (stereo not shown) [CBK070344],103.832
3,CC(C)CCc1c(O)nc(SCCN(C)C)[nH]c1=O [CBK263382],75.233
4,Clc1ncccc1OCCOc1ccccc1 [CBK003888],86.3849
5,COc1ccc(-c2c(C)nn3c(=O)c(Cc4ccccc4)c(C)[nH]c23)cc1 [CBK266951],96.7186
6,COc1ccccc1C(NC(=O)C1CCN(CCCN2C(=O)CC3CCCCC3C2=O)CC1)c1ccccn1 (stereo not shown) [CBK147940],98.7364
7,CCc1c(C)nn(-c2ccccc2Br)c1-c1ccccc1 [CBK016757],92.4117
8,Cc1cc2c(cc1C)C(O)CC1(CCN(CC(=O)NC3CCCCC3)CC1)O2 (stereo not shown) [CBK286399],67.6074
9,Cn1c(SCC(=O)O)nnc1-c1cc(Br)ccc1O [CBK269150],84.01
10,FC(F)(F)Oc1cccc(-c2cncc(NCc3ccncc3)n2)c1 [CBK065926],105.023
11,COCc1ccc(C(=O)N2CCC(c3cc4cnccc4[nH]3)CC2)cc1 [CBK283448],57.0062
12,COc1cc(C(F)(F)F)c(-c2ncn[nH]2)cn1 [CBK006362],5.035
13,Cc1cccn2c(=O)cc(CN3CCC(c4cnn(C)c4)CC3)nc12 [CBK305806],70.7074
14,Cc1cc(NC(=O)CN(C)C(=O)c2ccc(-n3cc(Br)cn3)cc2)no1 [CBK305575],23.4103
15,COc1ccc(CC(=O)Nc2nc(OCC(F)(F)F)cnc2-c2ccc(Cl)cc2Cl)cc1 [CBK145359],81.7833
16,O=c1c2cc(OCc3ccc(Cl)cc3)ccc2nc2n1CCC2 [CBK287977],98.7041
17,C/C(=C/C(=O)NCc1ccc(Cl)cc1)C(=O)O [CBK286954],85.7406
18,O=S(=O)(NC1CCCCC1Oc1ccccc1)c1ccc(Cl)cc1 (stereo not shown) [CBK264697],96.9436
19,OCc1ccc(-c2cc(NCc3cccs3)n3nccc3n2)cc1 [CBK037046],102.695
20,O=C1CSC2(C(=O)N(Cc3cccc(C(F)(F)F)c3)c3ccccc32)N1c1ccccc1 (stereo not shown) [CBK092392],82.3071
21,N#CCCCN1CCC(Oc2nccnc2OCc2cccc3ccccc23)CC1 [CBK161571],81.078
22,COc1ccc2[nH]cc(CCNC(=O)c3ccc([N+](=O)[O-])c(C)c3)c2c1 [CBK269426],28.1183
